Results on 1 sequence are retold here after US11639368B2, “Method for preventing and treating hyperpermeability” (Apeptico Forschung UND E[…], priority 2009, dated 2023).

For this experiment, the system named is myosin light chain. The experiment can be described thus: Phosphorylation of the myosin light chain (protein blot, densitometry). Conditions: 125 ng/ml of pneumolysin; 50 μg/ml of peptide; human endothelial lung cells. It counts as cell-based. The source says: Human endothelial cells of the lungs, isolated from capillaries of the lungs, were acquired from the company Lonza.
The microbial toxins listeriolysin (LLO) and pneumolysin (PLY) were acquired from the University of Giessen.
Human endothelial cells of the lungs, isolated from capillaries of the lungs, were cultivated in a manner common in the laboratory.
Determination of Phosphorylation of the Myosin Light Chain
For the determination of phosphorylation of the myosin light chain and the influence of the peptide SEQ ID No. 1 on the phosphorylation, the previously cultivated human endothelial cells of the lungs were washed with phosphate buffer pH 7.4, which contained 1 mM orthovanadate. The cell contents was lysed by incubation of the cells with a solution of 20 mM tris buffer (pH 7.4), 150 mM mol/1 of NaCl, 1 mM EDTA, 1 mM EGTA, 1% Triton X-100, 2.5 mM sodiumpyrophosphate, 1 mM betaglycerophosphate, 1 mM sodiumvanadate, 1 μg/ml of leupeptine, 1 mM phenylmethylsulfonylfluoride. In addition, the cells were digested with ultrasound. […]
In order to make either the myosin light chain or the phosphorylated myosin light chain visible, the antibodies were made visible on diagnostic film using chemiluminescence in a manner common in the laboratory. The signal strength was determined with densitometry, and the ratio of myosin light chain to phosphorylated myosin light chain was determined.

Turning to “CGQREAPAGAAAKPWYC [peptide SEQ ID No. 3, reference compound]”, the “increase in the content of phosphorylated myosin light chain by pneumolysin” value is listed as “no influence”.
